Measurements as given in patent US5550212A, “Analogues of hGH-RH(1-29)NH2 having antagonistic activity” (The Administrators of the Tulane Educational Fund, priority 1993, dated 1996).
Part of at least one peptide drawing is inferred or uncertain, most often the ends. Non-standard residues stand in square brackets, D forms with d. Residues, ends and D or L forms follow the SMILES beside them. *: point of attachment. Acetyl(1-naphthyl) = O=C(Cc1cccc2ccccc12)*; Phe(4-Cl) = N[C@@H](Cc1ccc(Cl)cc1)C(=O)O; 2Nal = N[C@@H](Cc1ccc2ccccc2c1)C(=O)O; dCit = NC(=O)NCCC[C@@H](N)C(=O)O; Agmatine = N=C(N)NCCCCN*; Isobutyryl = CC(C)C(=O)*; Nle = CCCC[C@H](N)C(=O)O; Abu = CC[C@H](N)C(=O)O; X2 = O=C(CI)*

System: hGH-RH(1-29)NH2 induced GH release
Assay: Superfused rat pituitary system: inhibition of hGH-RH(1-29)NH2 induced GH release
Assay type: cell-based
Details: for Inhibition of GH release (%) 0 min: 0 min response; for Inhibition of GH release (%) 30 min: 30 min response; for Inhibition of GH release (%) 60 min: 60 min response; for Inhibition of GH release (%) 120 min: 120 min response
Method: Superfused Rat Pituitary System. The analogues were tested in vitro in a test described earlier (S. Vigh and A. V. Schally, Peptides 5:241-[…], 1984) with modification ([…] and […]. 90:2146-2149, 1993). Briefly, the cells are preincubated with peptides for 9 minutes (3 mL) at various concentrations. Immediately after the incubation, 1 nM hGH-RH(1-29)NH2 is administered for 3 minutes (1 mL) [0 minute response]. To check the duration of the antagonistic effect of the analogue, 1 nM hGH-RH(1-29)NH2 is applied 30, 60, 90, and 120 minutes later for 3 minutes [30, 60, 90, 120 min responses]. Net integral values of the GH responses are evaluated. GH responses are compared to and expressed as percent of the original GH response induced by 1 nM GH-RH(1-29)NH2. The effect of the new antagonists are compared to that of [Ac-[…] ]hGH-RH(1-29)NH2, the "Standard antagonist". Growth Hormone Radio-immunoassay. Rat GH levels in aliquots of undiluted and diluted superfusion samples were measured by double-antibody radioimmunoassay using materials supplied by the National Hormone and Pituitary Program, Baltimore, Md. The results of RIA were analyzed with a computer program developed in our institute (V. Csernus and A. V. Schally, Harwood Academic (Greenstein, B. C. ed., London, pp. 71-109, 1991), hereby incorporated by reference. Inter-assay variation was less than 15% and intra-assay variation was less than 10%.

| SMILES | Inhibition of GH release (%) 0 min (dose 3 nM) [%] | Inhibition of GH release (%) 30 min (dose 3 nM) [%] | Inhibition of GH release (%) 60 min (dose 3 nM) [%] | Inhibition of GH release (%) 0 min (dose 30 nM) [%] | Inhibition of GH release (%) 30 min (dose 30 nM) [%] | Inhibition of GH release (%) 60 min (dose 30 nM) [%] | Inhibition of GH release (%) 120 min (dose 30 nM) [%] | Inhibition of GH release (%) 0 min (dose 100 nM) [%] | Inhibition of GH release (%) 30 min (dose 100 nM) [%] | Inhibition of GH release (%) 0 min (dose 300 nM) [%] |
| --- | --- | --- | --- | --- | --- | --- | --- | --- | --- | --- |
| CCCC[C@H](NC(=O)[C@@H](NC(=O)[C@H](CC(=O)O)NC(=O)[C@H](CCC(N)=O)NC(=O)[C@H](CC(C)C)NC(=O)[C@H](CC(C)C)NC(=O)[C@H](CCCCN)NC(=O)[C@H](CCCNC(=N)N)NC(=O)[C@H](C)NC(=O)[C@H](CO)NC(=O)[C@H](CC(C)C)NC(=O)[C@H](CCC(N)=O)NC(=O)[C@H](CC)NC(=O)[C@H](CC(C)C)NC(=O)[C@@H](NC(=O)[C@H](CCCCN)NC(=O)[C@H](CCCNC(=N)N)NC(=O)[C@H](Cc1ccc(O)cc1)NC(=O)[C@H](CO)NC(=O)[C@H](CC(N)=O)NC(=O)[C@@H](NC(=O)[C@H](Cc1ccc(Cl)cc1)NC(=O)[C@@H](NC(=O)[C@H](C)NC(=O)CNC(=O)[C@@H](CCCNC(=N)N)NC(=O)[C@H](Cc1ccc(O)cc1)NC(=O)Cc1cccc2ccccc12)[C@@H](C)CC)[C@@H](C)O)C(C)C)[C@@H](C)CC)C(=O)N[C@@H](CC(=O)O)C(=O)NCCCCNC(=N)N [Peptide 28, [Nac^0,D-Arg^2,Gly^3,Phe(pCl)^6,Abu^15,Nle^27,Asp^28]hGH-RH(1-28)Agm] ({Acetyl(1-naphthyl)}-Y[dR]GAI[Phe(4-Cl)]TNSYRKVL[Abu]QLSARKLLQDI[Nle]D-Agmatine) | 0 | 22.1 | 5.1 | 41.8 | 38.7 | 44 | 41.3 |  |  |  |
| CCCC[C@H](NC(=O)[C@@H](NC(=O)[C@H](CC(=O)O)NC(=O)[C@H](CCC(N)=O)NC(=O)[C@H](CC(C)C)NC(=O)[C@H](CC(C)C)NC(=O)[C@H](CCCCN)NC(=O)[C@H](CCCNC(=N)N)NC(=O)[C@H](C)NC(=O)[C@H](CO)NC(=O)[C@H](CC(C)C)NC(=O)[C@H](CCC(N)=O)NC(=O)[C@H](CC)NC(=O)[C@H](CC(C)C)NC(=O)[C@@H](NC(=O)[C@H](CCCCN)NC(=O)[C@H](CCCNC(=N)N)NC(=O)[C@H](Cc1ccc(O)cc1)NC(=O)[C@H](CO)NC(=O)[C@H](CC(N)=O)NC(=O)[C@@H](NC(=O)[C@@H]1CCCN1C(=O)[C@@H](NC(=O)[C@H](C)NC(=O)[C@H](CC(=O)O)NC(=O)[C@@H](CCCNC(=N)N)NC(=O)[C@H](Cc1ccc(O)cc1)NC(=O)CI)[C@@H](C)CC)[C@@H](C)O)C(C)C)[C@@H](C)CC)C(=O)N[C@@H](CC(=O)O)C(=O)NCCCCNC(=N)N [Peptide 29] (X2-Y[dR]DAIPTNSYRKVL[Abu]QLSARKLLQDI[Nle]D-Agmatine) |  |  |  |  |  |  |  | 0 | 0 |  |
| CCCC[C@H](NC(=O)[C@@H](NC(=O)[C@H](CC(=O)O)NC(=O)[C@H](CCC(N)=O)NC(=O)[C@H](CC(C)C)NC(=O)[C@H](CC(C)C)NC(=O)[C@H](CCCCN)NC(=O)[C@H](CCCNC(=N)N)NC(=O)[C@H](C)NC(=O)[C@H](CO)NC(=O)[C@H](CC(C)C)NC(=O)[C@H](CCC(N)=O)NC(=O)[C@H](CC)NC(=O)[C@H](CC(C)C)NC(=O)[C@@H](NC(=O)[C@H](CCCCN)NC(=O)[C@H](CCCNC(=N)N)NC(=O)[C@H](Cc1ccc(O)cc1)NC(=O)[C@H](CO)NC(=O)[C@H](CC(N)=O)NC(=O)[C@@H](NC(=O)[C@@H]1CCCN1C(=O)[C@@H](NC(=O)[C@H](C)NC(=O)[C@H](CC(=O)O)NC(=O)[C@@H](CCCNC(=N)N)NC(=O)[C@H](Cc1ccc(O)cc1)NC(=O)C(C)C)[C@@H](C)CC)[C@@H](C)O)C(C)C)[C@@H](C)CC)C(=O)N[C@@H](CC(=O)O)C(=O)NCCCCNC(=N)N [Peptide 30] (Isobutyryl-Y[dR]DAIPTNSYRKVL[Abu]QLSARKLLQDI[Nle]D-Agmatine) |  |  |  |  |  |  |  |  |  | 36.2 |
| CCCC[C@H](NC(=O)[C@@H](NC(=O)[C@H](CC(=O)O)NC(=O)[C@H](CCC(N)=O)NC(=O)[C@H](CC(C)C)NC(=O)[C@H](CC(C)C)NC(=O)[C@H](CCCCN)NC(=O)[C@H](CCCNC(=N)N)NC(=O)[C@H](C)NC(=O)[C@H](CO)NC(=O)[C@H](CC(C)C)NC(=O)[C@H](CCC(N)=O)NC(=O)[C@H](CC)NC(=O)[C@H](CC(C)C)NC(=O)[C@@H](NC(=O)[C@H](CCCCN)NC(=O)[C@H](CCCNC(=N)N)NC(=O)[C@H](Cc1ccc(O)cc1)NC(=O)[C@H](CO)NC(=O)[C@H](CC(N)=O)NC(=O)[C@@H](NC(=O)[C@H](Cc1ccc2ccccc2c1)NC(=O)[C@@H](NC(=O)[C@H](C)NC(=O)[C@H](CC(=O)O)NC(=O)[C@@H](CCCNC(=N)N)NC(=O)[C@H](Cc1ccc(O)cc1)NC(=O)Cc1cccc2ccccc12)[C@@H](C)CC)[C@@H](C)O)C(C)C)[C@@H](C)CC)C(=O)N[C@@H](CO)C(=O)NCCCCNC(=N)N [Peptide 32, [Nac^0,D-Arg^2, Nal^6,Abu^15,Nle^27]hGH-RH(1-28)Agm] ({Acetyl(1-naphthyl)}-Y[dR]DAI[2Nal]TNSYRKVL[Abu]QLSARKLLQDI[Nle]S-Agmatine) | 35.9 | 37.1 | 43.4 | 87.3 | 88.3 | 75.9 | 71.8 |  |  |  |
| CCCC[C@H](NC(=O)[C@@H](NC(=O)[C@H](CC(=O)O)NC(=O)[C@H](CCC(N)=O)NC(=O)[C@H](CC(C)C)NC(=O)[C@H](CC(C)C)NC(=O)[C@H](CCCCN)NC(=O)[C@H](CCCNC(=N)N)NC(=O)[C@H](C)NC(=O)[C@H](CO)NC(=O)[C@H](CC(C)C)NC(=O)[C@H](CCC(N)=O)NC(=O)[C@H](CC)NC(=O)[C@H](CC(C)C)NC(=O)[C@@H](NC(=O)[C@H](CCCCN)NC(=O)[C@H](CCCNC(=N)N)NC(=O)[C@H](Cc1ccc(O)cc1)NC(=O)[C@H](CO)NC(=O)[C@H](CC(N)=O)NC(=O)[C@@H](NC(=O)[C@H](C)NC(=O)[C@@H](NC(=O)[C@H](C)NC(=O)[C@H](CC(=O)O)NC(=O)[C@@H](CCCNC(=N)N)NC(=O)[C@H](Cc1ccc(O)cc1)NC(=O)Cc1cccc2ccccc12)[C@@H](C)CC)[C@@H](C)O)C(C)C)[C@@H](C)CC)C(=O)N[C@@H](CC(=O)O)C(=O)NCCCCNC(=N)N [Peptide 33] ({Acetyl(1-naphthyl)}-Y[dR]DAIATNSYRKVL[Abu]QLSARKLLQDI[Nle]D-Agmatine) |  |  |  | 28.5 | 20.1 | 3.8 |  |  |  |  |
| CCCC[C@H](NC(=O)[C@@H](NC(=O)[C@H](CC(=O)O)NC(=O)[C@H](CCC(N)=O)NC(=O)[C@H](CC(C)C)NC(=O)[C@H](CC(C)C)NC(=O)[C@H](CCCCN)NC(=O)[C@H](CCCNC(=N)N)NC(=O)[C@H](C)NC(=O)[C@H](CO)NC(=O)[C@H](CC(C)C)NC(=O)[C@H](CCC(N)=O)NC(=O)[C@H](CC)NC(=O)[C@H](CC(C)C)NC(=O)[C@@H](NC(=O)[C@H](CCCCN)NC(=O)[C@H](CCCNC(=N)N)NC(=O)[C@H](Cc1ccc(O)cc1)NC(=O)[C@H](CO)NC(=O)[C@H](CC(N)=O)NC(=O)[C@@H](NC(=O)[C@H](Cc1ccc(Cl)cc1)NC(=O)[C@@H](NC(=O)[C@H](C)NC(=O)[C@H](CC(=O)O)NC(=O)[C@@H](CCCNC(N)=O)NC(=O)[C@H](Cc1ccc(O)cc1)NC(=O)Cc1cccc2ccccc12)[C@@H](C)CC)[C@@H](C)O)C(C)C)[C@@H](C)CC)C(=O)N[C@@H](CO)C(=O)NCCCCNC(=N)N [Peptide 34, [Nac^0,D-Cit^2,Phe(pCl)^6,Abu^15,Nle^27]hGH-RH(1-28)Agm] ({Acetyl(1-naphthyl)}-Y[dCit]DAI[Phe(4-Cl)]TNSYRKVL[Abu]QLSARKLLQDI[Nle]S-Agmatine) | 70.4 | 50.5 | 40.6 | 91.2 | 87.4 | 84.8 |  |  |  |  |
| CCCC[C@H](NC(=O)[C@@H](NC(=O)[C@H](CC(=O)O)NC(=O)[C@H](CCC(N)=O)NC(=O)[C@H](CC(C)C)NC(=O)[C@H](CC(C)C)NC(=O)[C@H](CCCCN)NC(=O)[C@H](CCCNC(=N)N)NC(=O)[C@H](C)NC(=O)[C@H](CO)NC(=O)[C@H](CC(C)C)NC(=O)[C@H](CCC(N)=O)NC(=O)[C@H](CC)NC(=O)[C@H](CC(C)C)NC(=O)[C@@H](NC(=O)[C@H](CCCCN)NC(=O)[C@H](CCCNC(=N)N)NC(=O)[C@H](Cc1ccc(O)cc1)NC(=O)[C@H](CO)NC(=O)[C@H](CC(N)=O)NC(=O)[C@@H](NC(=O)[C@H](Cc1ccc(Cl)cc1)NC(=O)[C@@H](NC(=O)[C@H](C)NC(=O)[C@H](CC(=O)O)NC(=O)[C@@H](CCCNC(N)=O)NC(=O)[C@@H](N)Cc1ccc(O)cc1)[C@@H](C)CC)[C@@H](C)O)C(C)C)[C@@H](C)CC)C(=O)N[C@@H](CO)C(=O)NCCCCNC(=N)N [Peptide 35, D-Cit^2,Phe(pCl)^6,Abu^15,Nle^27]hGH-RH(1-28)Agm] (H-Y[dCit]DAI[Phe(4-Cl)]TNSYRKVL[Abu]QLSARKLLQDI[Nle]S-Agmatine) |  |  |  | 59.3 | 39.5 | 22.3 |  |  |  |  |
